Screen size: about 360,000 compounds; about 2,600 (0.72%) were called active. Inconclusive results, whose numbers are uncertain, are shown with a selection of clear calls. Calls follow the shape of the dose curve; as a rule, active = well fitted inhibition curve with a large enough effect; inconclusive = small, poorly fitted or top-dose-only effect; inactive = no such curve, though single readings can be large or run the other way. A potency beside an inconclusive call is a rough fit, not a confirmed value. The source holds several records for some structures; these can differ, active in one and inactive in another.
assay: Primary qHTS for Inhibitors of ATXN expression; conditions: HEK-293 ATXN2-luciferase reporter, luminescence, 24 h; activity change, negative = inhibition: at 57 µM (top of the series); also: nearly all actives have a fitted effect of over 55% in size
How it was run: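 qHTS (up to 57 uM final) was run with 24 h compound exposure of reporter cells at 37 °C. Each well was multiplexed: SteadyGlo luminescence measured ATXN2-luciferase expression after a fluorogenic Gly-Phe-AFC viability readout (25 uM final).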
% is scaled to controls: 0 for no effect and ±100 for the full control effect; potency is read from the fitted curve at half-maximal effect; tags tell the direction and shape of the fitted curve.

Potency, inconclusive:
COc1ccc(CCNC(=O)c2ccc3c(c2)ncn3-c2ccc(C)cc2C)cc1OC 39.8 µM [inhibitor, single point]
Cc1ccccc1NC(=O)Cc1nc(-c2c[nH]c(C(=O)N3CCCC3)c2)cs1 14.1 µM [inhibitor, partial curve, poor fit]
CCOc1ccc(-c2nc(CSCC(=O)NCc3ccc(Cl)cc3)c(C)o2)cc1 17.8 µM [inhibitor, partial curve, poor fit]
CCCn1c(=O)c(C(=O)NCc2ccc(OC)c(OC)c2)c(O)c2ccccc21 31.6 µM [inhibitor, partial curve, poor fit]
CCN1C(C(=O)c2ccccc2)=C(OC(=O)c2ccccc2OC)c2ccccc2S1(=O)=O 39.8 µM [inhibitor, single point]
CC(C)(C)CC(=O)O/N=C(\N)c1ccccn1 20 µM [inhibitor, single point]
Cc1ccc(C(=O)NCCCn2ccnc2)cc1[N+](=O)[O-] 39.8 µM [inhibitor, partial curve, poor fit]
Cc1ccc2nc(CSc3nc(C)nc4c3oc3ccccc34)[nH]c2c1 39.8 µM [inhibitor, single point]
O=C(N[C@@H](c1ccccc1)[C@@H]1CCCCN1)c1cccc(C(F)(F)F)c1Cl 27.3 µM [inhibitor, partial curve]
COc1ccc2[nH]c(=O)c(CN(Cc3cccs3)S(=O)(=O)c3cccc4nsnc34)cc2c1 31.6 µM [inhibitor, single point]
Cc1ccsc1C(=O)C1CCCN(Cc2cc(F)ccc2-n2cccn2)C1 (configuration not stated) 10.6 µM [inhibitor, partial curve, poor fit]
CC1(C)CC(=O)C(C(C2=C(O)CC(C)(C)CC2=O)c2ccc(Br)s2)C(=O)C1 (configuration not stated) 39.8 µM [inhibitor, single point]
C#Cc1ccc([C@H]2C=C(C(=O)NCc3ccccc3)O[C@@H](OCC)[C@@H]2CCCO)cc1 28.2 µM [inhibitor, single point]
Cc1ccc(C)c(Cn2nnc3c(=O)[nH]c(C4CCCN(S(=O)(=O)Cc5ccccc5)C4)nc32)c1 (configuration not stated) 39.8 µM [inhibitor, single point]
CCOC(=O)c1c(-c2ccccc2)oc2ccc(N(C(C)=O)S(=O)(=O)c3ccc(CC)cc3)cc12 15.8 µM [inhibitor, partial curve]
OC(CCN1CCCCC1)(c1ccccc1)C1CCCCC1 (configuration not stated) 31.6 µM [inhibitor, partial curve]
CCC(CO)Oc1cc(NCc2ccc(C)c(C)c2)c2ncn(C(C)C)c2c1 (configuration not stated) 25.1 µM [inhibitor, single point]
CCc1ccc(/C=N/NC(=O)c2ccccn2)cc1 14.1 µM [inhibitor, partial curve, poor fit]
Cc1ccc(NC(=O)CSc2ccc(-c3ccccn3)nn2)cc1 21.2 µM [inhibitor, partial curve, poor fit]
Cc1cc(C)c(C(O)c2ncc(-c3cccc4ccccc34)[nH]2)c(C)c1 (configuration not stated) 25.1 µM [inhibitor, single point]
O=C(c1ccc([N+](=O)[O-])o1)N1CCN(c2nc3c(F)cc(F)cc3s2)CC1 14.1 µM [inhibitor, partial curve, poor fit]
O=C(CN1CCN(C/C=C/c2ccccc2)CC1)NCc1ccc(Cl)cc1 39.8 µM [inhibitor, partial curve, poor fit]
COC(=O)NC(=C(Cl)Cl)S(=O)(=O)c1ccccc1 39.8 µM [inhibitor, single point]
CCOC(=O)c1sc2nc(C)nc(N3CCCCC3C)c2c1C (configuration not stated) 37.7 µM [inhibitor, single point]
O=C(NCc1ccccc1)c1ccc(Cl)c(NC2=NC3CS(=O)(=O)CC3S2)c1 (configuration not stated) 17.8 µM [inhibitor, partial curve, poor fit]
Cc1nn(-c2ccc(F)cc2)c(-n2cccc2)c1C(=O)NCCc1ccc(Cl)cc1 35.5 µM [inhibitor, single point]
O=c1c2cc(F)ccc2sn1-c1ccc(F)cc1 39.8 µM [inhibitor, single point]
CCOC(=O)c1sc2nc(C)nc(NCc3ccc(F)cc3)c2c1C 39.8 µM [inhibitor, single point]
CCOC(=O)N1CCN(C(=O)C2CCCN(Cc3nc(-c4ccc(Cl)cc4)oc3C)C2)CC1 (configuration not stated) 11.2 µM [inhibitor, partial curve]
Cc1ccc(C)c(N2CCN(C(=O)c3cc4c(=O)n(Cc5ccccc5)ccc4nc3C)CC2)c1 28.2 µM [inhibitor, single point]
Cc1cccc(OCCCC(=O)Nc2nccs2)c1 39.8 µM [inhibitor, single point]
CCC(=O)N1N=C(c2ccc(NS(=O)(=O)c3ccc(C)cc3)cc2)CC1c1ccco1 (configuration not stated) 39.8 µM [inhibitor, single point]
FC(F)Oc1ccc(/C=N/NC(=S)Nc2cc(C(F)(F)F)ccc2Cl)cc1 10 µM [inhibitor, partial curve, poor fit]
Cc1ccc(S(=O)(=O)N2CCCc3cc(NS(=O)(=O)c4cc(C)ccc4C)ccc32)cc1 22.4 µM [inhibitor, partial curve, poor fit]
COC(=O)c1cc(=O)n(CCc2ccc(OC)cc2)c(=Nc2ccc(F)c(Cl)c2)s1 23.8 µM [inhibitor, single point]

Potency, active:
CCN(CC)CCNC(=O)c1ccc2c(=O)n3nc(Nc4ccccc4OC)sc3nc2c1 15.8 µM
CCc1nc2ccccc2c(C(=O)OCC(=O)Nc2cccc(S(=O)(=O)NC3=NCCCCC3)c2)c1C 22.4 µM
O=C(NCc1cc(C(F)(F)F)ccc1Cl)c1cccc2c1C(=O)c1ccc(N3CCC(N4CCCCC4)CC3)cc1S2(=O)=O 25.1 µM
NC(=S)N/N=C/c1ncc(C(F)(F)F)cc1Cl 7.94 µM
Cc1ccc(C(=O)Nc2ccc3c(c2)OCCO3)cc1 12.6 µM
Cc1ccc2c(Cl)cc(Cl)c(O)c2n1 7.08 µM
COC(C(=O)C(O)C(C)O)C1Cc2cc3cc(OC4CC(OC5CC(O)C(O)C(C)O5)C(O)C(C)O4)c(C)c(O)c3c(O)c2C(=O)C1OC1CC(OC2CC(OC3CC(O)C(OC)C(C)O3)C(O)C(C)O2)C(O)C(C)O1 (configuration not stated) 10 µM

Activity change, negative = inhibition, inactive:
O=S1(=O)c2ccccc2N(Cc2cccc(Cl)c2)c2ccccc21 -24.8%
O=C(c1ccco1)N1N=C2CCCCCC2C1(O)C(F)(F)F (configuration not stated) -6.17%
CCNC(=O)c1sc(=S)n(-c2ccc(C)cc2)c1N 3.23%
O=C(N/N=C/c1cc(Br)cs1)c1ccc2c(c1)OCCO2 -18.9%
CC(C)c1csc(CN2CCC(n3nccc3NC(=O)Cc3ccccc3)CC2)n1 -0.246%
COc1ccc(-c2csc(NC(=O)C3CCN(C(=O)c4ccc(F)cc4)CC3)n2)cc1OC -26%
CN1OC[C@@H]2CN(Cc3ccccc3)[C@H](c3cccc(N4CCOCC4)c3)C[C@@H]21 -10.3%
CC(=O)N1CCc2nc3sc(C(=O)Nc4ccc(Cl)cc4F)c(N)c3c(C(F)(F)F)c2C1 -3.2%
CCC1(O)CC2CN(CCc3c([nH]c4ccccc34)C(C(=O)OC)(c3cc4c(cc3OC)N(C=O)C3C(O)(C(=O)OC)C(OC(C)=O)C5(CC)C=CCN6CCC43C65)C2)C1 (configuration not stated) -4.49%
CC(=O)Nc1ccccc1OCCCN1CCC(C(O)(c2ccccc2)c2ccccc2)CC1 -2.85%
COC1CCCN(Cc2cn(C)nc2-c2ccc(Oc3ccccc3)cc2)C1 (configuration not stated) -11.4%
O=C(C[C@H]1C[C@H](C(=O)N2CCCCC2)[C@@]2(CCc3ccccc3)c3[nH]c4ccc(Cl)cc4c3CCN2C1=O)NCCN1CCOCC1 9.49%
NC(=O)CC(NC(=O)Cc1cccc2ccccc12)c1ccc(NCc2ccccn2)c([N+](=O)[O-])c1 (configuration not stated) 5.43%
COC(=O)c1cc2oc3ccccc3c2n1CC(=O)Nc1ccc(Cl)cc1F 5.19%
CCO[C@H]1OC(C(=O)N2CCCCCCC2)=C[C@@H](c2ccccc2)[C@@H]1CCCO 3.36%
COc1cc(C2c3sc(=O)[nH]c3SC3C(=O)N(c4ccc(Br)cc4)C(=O)C32)ccc1O (configuration not stated) 2.65%
COc1ccc(NS(=O)(=O)c2ccc(C)c(C(=O)NC3CCN(Cc4ccccc4)CC3)c2)cc1 -25.4%
CCOC(=O)C(=O)N(C)c1c(CC)nc2c(OCc3ccc(OC(F)F)cc3)cccn12 -7.32%
CCOc1ccc(C2NC(=O)Cc3cc(OC)c(OC)cc32)cc1 (configuration not stated) 10.9%
CC(C)OCCCn1c(SCC(=O)c2ccccc2)nc2c(sc3ccccc32)c1=O -1.85%
CCOC(=O)C1(Cc2cccc(Cl)c2)CCCN(C(=O)c2ccoc2C)C1 (configuration not stated) -24.7%
COc1cc(CNc2ccc3[nH]c(=O)[nH]c3c2)ccc1OCc1ccc(Cl)cc1 4.47%
Cc1nonc1OCCNCc1c(C(=O)N(C)C)nc2ccc(Cl)cn12 -12.3%
S=C(NCc1ccccc1)NCc1cccc(Cl)c1 1.02%
COC(=O)C12CC3CC(C1)CC(n1cnc(Cl)n1)(C3)C2 -5.67%

— PubChem BioAssay AID1745845 (National Center for Advancing Translational Sciences (NCATS), 2022)
